Some of the results follow. The main result of the screen is listed elsewhere. These columns were measured beside it and carry no call.

We go through 31 compounds from PubChem BioAssay AID1745853 (National Center for Advancing Translational Sciences (NCATS), 2022).

Assay in all cases: Primary Screen for Target Class Profiling of Small Molecule Inhibitors of Methyltransferases
Assay [1] addresses Glycine N-methyltransferase (Homo sapiens) (UniProt Q14749). The conditions noted are these: purified enzyme, MTase-Glo SAH luminescence; measured here: GNMT inhibition; at 40 µM; stronger effect = lower value. Summed up: (§1)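 Each enzyme was reacted with SAM and its substrate, with compounds tested once at 40 uM; SAH formed was read by MTase-Glo luminescence.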
Assay [2] deals with Guanidinoacetate N-methyltransferase (Homo sapiens) (UniProt Q14353). As to conditions: purified enzyme, MTase-Glo SAH luminescence; measured here: GAMT inhibition; at 40 µM; stronger effect = lower value. Summed up: as §1
The target in assay [3] is Histamine N-methyltransferase (Homo sapiens) (UniProt P50135). The conditions noted are these: purified enzyme, MTase-Glo SAH luminescence; measured here: HNMT inhibition; at 40 µM; stronger effect = lower value. The essentials:
as §1

Assay [4] concerns the target Nicotinamide N-methyltransferase (Homo sapiens) (UniProt P40261). The conditions noted are these: purified enzyme, MTase-Glo SAH luminescence; measured here: NNMT inhibition; at 40 µM; stronger effect = lower value. The essentials:
as §1

Assay [5] deals with Phenylethanolamine N-methyltransferase (Homo sapiens) (UniProt P11086). The conditions noted are these: purified enzyme, MTase-Glo SAH luminescence; measured here: PNMT inhibition; at 40 µM; stronger effect = lower value. Summed up: as §1
On the % scale 0 is the no-effect control and ±100 the full control effect.

With `O=C(Nc1ccccc1)N1Cc2c(sc3c2CCCC3)-n2cccc2C1c1ccc(Cl)cc1` (stereo not given), the activity change, negative = inhibition in assay [1] came out at 4.17%; in assay [2], 0%; in assay [3], 3.61%; in assay [4], 3.81%; in assay [5] it was 7.75%.
For `COCCS(=O)(=O)c1ncc(CN(C)C(C)c2ccon2)n1Cc1ccccc1` (stereo not given), in that order: 1.07%, 3.61%, 2.63%, -1.91% and -1.41%.
On to `COc1cc2c(cc1OC)N1C(=O)C[C@@]34C=CC[N@+]5([O-])CC[C@H]2[C@H](CC3)[C@@]145`, for which the activity change, negative = inhibition in assay [1] is 0.653%; in assay [2], -0.102%; in assay [3], 7.53%; in assay [4], -14.8%; in assay [5], 5.48%.
For `Cc1nn(CC(=O)N2CCC3(CCCN(C)CC3)CC2)c(=O)c2ccccc12`, in that order: -11.1%, 1.4%, -5.06%, -3.05% and -1.95%.
For `c1ccc(COc2ccc(CN3CCN(C4CCNC4)CC3)cc2)cc1` (stereo not given), in that order: -7.45%, -11.5%, -18.8%, -10.8% and -26.9%.
In the same order, the values of `COC(=O)c1cc2n(n1)CC(C)(C(=O)NC1CCCCCC1)N(c1ccc(C)cc1)C2=O` (stereo not given) are 0.897%, 1.33%, -9.87%, 4.92% and 1.95%.
Take `O=C([C@@H]1CNC[C@H](C(=O)N2CCC(c3ccncn3)CC2)C1)N1CCCC1`: the activity change, negative = inhibition in assay [1] is -6.55%; in assay [2] it was -4.61%; in assay [3], -0.362%; in assay [4], -13.3%; in assay [5] it was -9.39%.
With `Cc1ccc(Cl)cc1N1CCN(S(=O)(=O)c2ccc3c(c2)n(C)c(=O)n3C)CC1`, the activity change, negative = inhibition in assay [1] is -3.8%; in assay [2], 2.3%; in assay [3], 3%; in assay [4] it was -4.16%; in assay [5], 0.656%.
For `CNC(=O)[C@@H](CC(C)C)N1CCC[C@H]1C(=O)N[C@@H](CO)CC(C)C`, in that order: -5.83%, -8.77%, -3.37%, -10.8% and 4.18%.
As to `CCCn1c(=O)c2ccc(C(=O)NCC(C)C)cc2n2c(=O)n(Cc3ccccc3)nc12`, the activity change, negative = inhibition stood at 0.204% in assay [1]; 0.72% in assay [2]; 1.72% in assay [3]; 1.36% in assay [4]; 3.08% in assay [5].
In the same order, the values of `CCO[C@H]1CN(C2CCN(CCc3ccccc3)CC2)C[C@@H]1O` are 0.98%, -1.22%, -0.379%, 3.41% and 5.42%.
For `O=C(CCn1ccc2cc(S(=O)(=O)N3CCCC3)ccc21)NCc1ccccc1`, the activity change, negative = inhibition was -7.08% in assay [1]; 0% in assay [2]; -0.185% in assay [3]; -9.45% in assay [4]; -6.71% in assay [5].
In the case of `COc1cc(CO)cc(OC)c1O[C@@H]1O[C@H](CO)[C@@H](O)[C@H](O)[C@H]1O`, the activity change, negative = inhibition in assay [1] was 4.89%; in assay [2], 4.76%; in assay [3], 10.4%; in assay [4], -7.66%; in assay [5] it was 8.47%.
With `COc1cccc([C@H]2Nc3ccc(S(=O)(=O)Nc4ccc(C)cc4C)cc3[C@H]3C=CC[C@H]32)c1`, the activity change, negative = inhibition is -14.2% in assay [1]; -10.3% in assay [2]; -18.4% in assay [3]; -37.8% in assay [4]; -16% in assay [5].
On to `CCCn1c(=O)c2ccc(C(=O)NC3CCCC3)cc2n2c(=O)n(CC(=O)c3ccc(C)cc3)nc12`, for which the activity change, negative = inhibition in assay [1] is -1.17%; in assay [2] it was 3.12%; in assay [3], -3.27%; in assay [4], -5.24%; in assay [5], -1.82%.
For `Cc1cc(C)cc(NC(=O)CCc2nnc3n(CCCOC(C)C)c(=O)c4ccccc4n23)c1`, the activity change, negative = inhibition in assay [1] was -3.2%; in assay [2], 0%; in assay [3], 6.65%; in assay [4], 11.7%; in assay [5] it was 1.58%.
For `CCCN1C(=O)c2c(C(=O)Nc3ccc(CC)cc3)ncn2CC1(C)C(=O)NCc1ccccc1` (stereo not given), in that order: -11.5%, -0.564%, -3.83%, -3.85% and -6.69%.
For `CC1=C(/C=C/C(C)=C/C=C/C(C)=C/C(=O)O)C(C)(C)CCC1`, in that order: -12.1%, 8.68%, 4.45%, -8.69% and -0.441%.
For `O=C1NCc2ccccc2CC12CCN(Cc1ccc(F)cc1)CC2`, in that order: -4.37%, -6.37%, -3.97%, -10.6% and -0.619%.
With `Cc1ccc(Cn2nc3n(Cc4ccc(C)cc4)c(=O)c4ccccc4n3c2=O)cc1`, the activity change, negative = inhibition is 7.83% in assay [1]; 0% in assay [2]; 11.3% in assay [3]; 6.76% in assay [4]; 4.41% in assay [5].
Regarding `COc1ccccc1CCN1CCCC(CN(C)C(=O)Nc2ccccc2)C1` (stereo not given), the activity change, negative = inhibition in assay [1] is -2%; in assay [2], 0.157%; in assay [3], -22.8%; in assay [4], -6.56%; in assay [5], -0.448%.
For `COc1ccc(-c2cc3n(n2)CC(C)(C(=O)NC2CCCCC2)N(C2CCCCCC2)C3=O)cc1` (stereo not given), in that order: -2.36%, 2.4%, 2.56%, 1.02% and -3.24%.
In the same order, the values of `COC(=O)c1ncn2c1C(=O)N(c1ccc(C(C)C)cc1)C(C)(C(=O)NC1CCCCCC1)C2` (stereo not given) are 5.64%, 1.62%, 6.64%, 7.67% and 3.48%.
For `CC(C)c1ccc(-n2cc(CN3CCN(C(=O)N(C)C)CC3)cn2)cc1`, in that order: -7.09%, -6.54%, -1.75%, -10.8% and -4.32%.
Turning to `CC1CCC2(C(=O)OC3OC(CO)C(O)C(O)C3O)CCC3(C(=O)O)C(=CCC4C5(C)CCC(OC6OC(C)C(O)C(O)C6O)C(C)(C)C5CCC43C)C2C1C` (stereo not given), the activity change, negative = inhibition in assay [1] was -0.469%; in assay [2], -4.3%; in assay [3], 2.53%; in assay [4] it was -17.1%; in assay [5], 0.597%.
For `COc1ccc(N2C(=O)c3cc4sccc4n3CC2(C)C(=O)NC2CCCC(C)C2C)cc1OC` (stereo not given), in that order: 0.317%, 0%, 6.36%, 6.82% and 2.35%.
In the same order, the values of `CCCc1[nH]nc2c1C(c1cc(Cl)cc(Cl)c1O)C(C#N)=C(N)O2` (stereo not given) are -0.175%, 4.78%, 7.27%, -34.4% and -0.099%.
For `C=CCNc1nc(CC)nc2c1CCN(C(=O)c1cn(C)nc1C)CC2`, the activity change, negative = inhibition in assay [1] was -2.83%; in assay [2], -9.74%; in assay [3] it was -3.73%; in assay [4], -10.3%; in assay [5], 6.31%.
For `O=C(NCc1ccccc1)c1ccc2c(=O)nc3c(-c4ccc(F)cc4)n[nH]n3c2c1`, in that order: -12%, 4.07%, -2.43%, -9.88% and -8.25%.
Turning to `COc1ccc(OC)c(Nc2nc3c(S(=O)(=O)c4ccc(C)cc4)nnn3c3ccccc23)c1`, the activity change, negative = inhibition was -1.25% in assay [1]; 4.32% in assay [2]; -0.955% in assay [3]; 7.46% in assay [4]; -2.99% in assay [5].
In the same order, the values of `COc1ccc(-c2cc3n(n2)CC(C)(C(=O)NCc2ccccc2OC)N(c2cccc(OC)c2)C3=O)cc1` (stereo not given) are 8.11%, 1.2%, 10.2%, 12.2% and 3.46%.
